# Test results: ChEMBL document CHEMBL4888484, “Replenishing the malaria drug discovery pipeline: Screening and hit evaluation of the MMV Hit Generation Library 1 (HGL1) against asexual blood stage Plasmodium falciparum ,using a nano luciferase reporter read-out” (2022)
# In all, about 150,000 compounds went through this assay and about 540 (0.36%) showed an effect of 50% or more. The list shows a part of the results.
# System: Plasmodium falciparum
# Assay: Primary screen in NF54 nanoGlo assay, in single point, at 2uM, 72h; a lower Z score goes with more inhibition
# Assay type: functional, Erythrocyte
# Details: timepoint 72 hour
Structure (SMILES),% Inhibition,Z score
Cc1sc(-c2nc(-c3cccc(F)c3)no2)cc1S(=O)(=O)NCCN1CCc2ccccc2C1,-10%,1.16
O=C(NC(c1ccccc1)c1ccccc1)C1CCN(S(=O)(=O)Cc2ccc(Cl)cc2)CC1,4%,-0.8
Cc1cccc(CN2CC=C(C(=O)NCc3ccc(N4CCOCC4)cc3)CC2)c1,-6%,0.9
O=C(CNC(=O)c1ccc(C(F)(F)F)cc1)Nc1cnc2c(c1)COCC2,34%,-4.64
O=C(NCc1cn(CC(=O)N2CCOCC2)nn1)Nc1ccc(Cl)cc1,0%,0.04
CN(C)c1nc(N(C)C[C@H]2CCCN2C)nc2ccccc12,-1%,0.1
c1nnc(CN2CCn3c(CC4CC4)nnc3C2)s1,-11%,1.26
CCOC(=O)c1cnn2c(N)c(C(=O)Nc3cccc(C(F)(F)F)c3)nnc12,7%,-1.06
CCCN(CC1CC1)C(=O)c1[nH]c2c(F)cccc2c1C,-18%,1.59
O=C(CCc1ccncc1)N[C@H]1C[C@H](c2nnc(CO)n2C2CC2)C1,3%,-0.39
COCC(=O)N1CCN(Cc2cc(C)cc(C)c2)C(=O)C1,8%,-1.03
C[C@H](NC(=O)C(C)(C)C)C(=O)OCC(=O)Nc1cc(F)ccc1F,-10%,1.44
CCc1nc(NCCc2ccnn2C)ncc1C,1%,-0.15
O=C(Cc1csc2ccccc12)N1CCN(C(=O)NC2CCCC2)CC1,-7%,1.1
Nc1nc2[nH]c(-c3ccc(Br)cc3)nc2c(=O)[nH]1,-4%,0.51
CC(=O)c1nn(-c2cccc(C)c2)c(-c2ccco2)c1C#N,1%,-0.17
FC(F)(F)Oc1ccccc1[C@]1(F)CCNC1,-2%,0.24
CN1CCC[C@H](CN(C)c2ccnc(N(C)C)n2)C1,-4%,0.52
COc1cc(OC)c(NC(=O)N2CCCCC[C@H]2c2ccc(C)cc2)cc1Cl,-1%,0.21
COc1ccc(CN(C(C)=O)C(C)C)cc1OS(=O)(=O)C(C)C,-1%,0.17
CC[C@H](NS(=O)(=O)N1CCCC1)c1nccs1,3%,-0.49
NC(=O)c1cn(C2CCN(C(=O)NCc3ccc(Cl)s3)CC2)nn1,-12%,1.19
O=C1C[C@H](c2nc3cc(Cl)ccc3o2)CN1c1ccccc1,12%,-1.74
CC[C@H](O)C(=O)N1CCC2(CCC(=O)N(C3CCOCC3)C2)CC1,1%,-0.19
Cc1c(C(=O)N2CCC[C@H]2C(=O)N2CCCCC2)[nH]c2c(F)cccc12,-3%,0.6
Cc1ccc(S(=O)(=O)N2CC[C@H](CO)[C@H](NC(=O)c3cccnc3)C2)cc1,-10%,1.29
COc1ccc(-c2nc(NCc3ccccc3CN3CCCCC3)[nH]c(=O)c2C#N)cc1,-1%,0.24

Structure (SMILES),% Inhibition,Z score
c1cnc2nc(N3CCOCC3)ccc2c1,-7%,0.79
CCCO[C@H]1CCCN(c2cc(CCN)nc(C)n2)C1,-1%,0.12
COc1ccc(N2CCN(C(=O)c3c(C4CC4)n(Cc4cccs4)c(C)cc3=O)CC2)cc1,11%,-1.49
O=C(O)C[C@@H]1CCN(C(=O)c2ccccc2)C[C@@H]1CC1=NCCc2cc(F)ccc21,12%,-1.38
COc1ccccc1N(Cc1nnnn1C1CC1)S(=O)(=O)c1ccc(F)cc1,-9%,1.73
Cc1nc(C(C)C)sc1C(=O)N1Cc2ccccc2C1,-17%,2.41
O=C(Nc1ccccc1)c1ccc(N2C(=O)CCS2(=O)=O)cc1Cl,-7%,0.85
O=C(C1CC2CCC1O2)N(Cc1ccco1)c1cccc(F)c1 (stereo unspecified),-6%,1.19
CC1=NS(=O)(=O)N(CCc2ccccc2)C=C1C(=O)NCCc1ccc(S(N)(=O)=O)cc1,-15%,2.93
O=C1[C@@H]2CC[C@@H](c3ccccc3)N2C(=O)N1c1ccc(-n2cccn2)nc1,-2%,0.18
COC(=O)c1ccc(NC(=O)C(C)(C)NC(=O)C(F)(F)F)cn1,1%,-0.09
O=C(c1nn(-c2ccccn2)c2nccc(-c3cccs3)c12)N1CCCC1,-7%,0.92
CN(Cc1ccccn1)C(=O)[C@H]1CCN(Cc2ccccc2)C1,11%,-1.29
CN(C(=O)Nc1nnc(C2CC2)s1)C1CC1,12%,-1.58
N#Cc1ccc(S(=O)(=O)CCn2cnc3ccccc3c2=O)cc1,-19%,3.02
CN(Cc1ccccc1)Cc1c(N)n(C)c(=O)[nH]c1=O,-11%,1.49
CO[C@H]1CCN(c2ccc(NC(=O)Nc3ccc4c(c3)OCO4)cc2)C1,-17%,2.24
O=C(Nc1cccc(-c2ccc3c(c2)OCCO3)n1)[C@@H]1CCCO1,-5%,0.97
O=C(c1ccc2noc(-c3ccc(Cl)cc3)c2c1)N1CCN(Cc2ccccc2)CC1,8%,-1.17
O=C(O)CCc1cc2n(n1)CCCN(Cc1ccc3[nH]ccc3c1)C2,-15%,1.85
CCOc1ccc(NC(=O)[C@H]2CCOC2)cc1,-17%,2.36
COc1cc(NC(=O)N2CCC[C@@H]2CN2CCCC2)ncn1,-13%,1.65
CN(C)C1(CNc2nc3c(c(=O)[nH]2)Cc2ccccc2OC3)CCOCC1,-10%,1.78
NCCOc1ccc(CC(=O)N[C@@H]2COC3(CCCCC3)C2)cc1,1%,-0.11
Cc1cnc(-n2ncc(C(=O)N3CC[C@H](N(C)C)C3)c2C(C)C)nc1-c1ccc(F)cc1,12%,-1.57
O=C([C@H]1CCOC1)N1CCC(Oc2ccc(F)cc2)CC1,-6%,1.11
